{
  "source": "patent US20110182860A1",
  "about": "(priority 2009, published 2011)",
  "system": "Root knot nematode disease",
  "conditions": "in vivo",
  "note": "Marks after values point to notes of the source that are not given here.",
  "data": [
    {"substance": "abamectin [Control 4, reference compound]", "values": [
      {"measurement": "Biocontrol efficacy, Root knot nematode disease", "result": "47.36 ± 3.3^d %"},
      {"measurement": "Disease severity, Root knot nematode disease", "result": "30.58 ± 2.7^b %"}
    ]}
  ]
}
